Results reported in the supplement of paper PMC3334620.
Whole data set: some 33,000 sequences, median “E-score (-0.5 to 0.5)” near -0.011, cut for the highest 2% near 0.28. Some of the results follow.

Target: T1, Gcr1 (UniProt P07261)
T1 sequence: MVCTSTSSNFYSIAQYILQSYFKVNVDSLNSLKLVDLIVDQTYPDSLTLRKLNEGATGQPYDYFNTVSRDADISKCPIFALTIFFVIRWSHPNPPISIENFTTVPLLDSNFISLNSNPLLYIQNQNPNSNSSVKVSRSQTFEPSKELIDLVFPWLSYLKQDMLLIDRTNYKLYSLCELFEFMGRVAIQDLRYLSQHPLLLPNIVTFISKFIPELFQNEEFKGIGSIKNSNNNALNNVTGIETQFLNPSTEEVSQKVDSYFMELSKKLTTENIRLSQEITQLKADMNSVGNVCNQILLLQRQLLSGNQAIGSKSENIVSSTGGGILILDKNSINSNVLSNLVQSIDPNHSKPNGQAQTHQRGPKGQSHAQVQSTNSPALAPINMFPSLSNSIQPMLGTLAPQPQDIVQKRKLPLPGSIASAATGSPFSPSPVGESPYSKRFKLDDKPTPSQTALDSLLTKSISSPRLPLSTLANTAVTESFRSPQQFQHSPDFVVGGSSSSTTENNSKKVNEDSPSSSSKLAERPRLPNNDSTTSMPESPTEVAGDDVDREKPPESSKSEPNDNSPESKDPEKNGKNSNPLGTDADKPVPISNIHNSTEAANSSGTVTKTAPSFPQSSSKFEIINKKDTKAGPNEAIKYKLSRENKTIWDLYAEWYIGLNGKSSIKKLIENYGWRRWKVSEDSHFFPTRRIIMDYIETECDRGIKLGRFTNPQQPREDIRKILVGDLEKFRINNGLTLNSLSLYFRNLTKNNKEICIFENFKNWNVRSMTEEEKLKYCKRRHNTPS
Experiment: PBM E-score (8-mer binding enrichment) (E-score (-0.5 to 0.5)); higher = stronger / more preferred TF binding; most listed sequences are background and not binding sites
Conditions: protein concentration: 100 nM; construct: GST-full length
Summary of the method: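 For each ungapped eight-base word taken together with its reverse complement, the Universal PBM Analysis Suite assigned an E-score. Binding data came from GST-tagged yeast transcription factors, applied at about 100-200 nM, on universal all-10-mer Agilent arrays made double-stranded by primer extension. Fluorescent anti-GST marked bound protein, and scans were normalised with masliner.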

Point of comparison: AGTGCTCA, “PBM E-score” value -0.181. Against it:
- GCGCATAA — lower, -0.229
- GCGCCGCA — higher, 0.114
- ATTAGGTA — higher, -0.111
- AGCGCCCA — higher, 0.183
- GAAGTGAA — higher, 0.224
- GTCCGCTA — higher, 0.0982
- ACTAGGTG — higher, 0.0431
- AGCGTTTA — higher, 0.0678
- TGCCTAAA — higher, 0.192
- CAACGCTG — higher, -0.0977
- CCGCGGCC — higher, 0.0546
- GACGGGCC — lower, -0.182
- TAACTAAA — higher, 0.0861
- CGCTGCCG — higher, 0.175
- CAGAGTAC — higher, 0.08
- ACGTCTTA — higher, 0.00729
- CACGCATA — higher, -0.173
- AGAATCTG — higher, 0.203
- GCTAAAAA — higher, 0.137
- AGACGTGG — lower, -0.252
- ACTTTAAA — higher, 0.0642
- CTCTCTTA — higher, -0.0717
- CGAAGTTA — higher, 0.0921
- AAAGCGGC — higher, 0.213
- CCCCCGAC — higher, -0.137
- CCTCACCG — higher, -0.0239
- GTGTTCAA — higher, 0.0662
- GAGCCAGC — higher, -0.0825
- ACCGAGGT — higher, -0.119
- CGAATAAC — higher, 0.0279
- AATCCTGT — higher, 0.217
- AAGTCCTC — higher, 0.0526
- CGATTATA — higher, 0.0315
- AGCGGTGG — higher, -0.0647
- CAAGCTCA — higher, -0.14
- AGCATGTA — higher, 0.0411
- GCTGAGAA — higher, -0.0462
- CGTTATTC — higher, -0.0445
- GAATTCGA — higher, 0.0254
- CTTATGAC — higher, 0.0224
- TATGAGCA — higher, -0.102
- TGTTGCAA — higher, 0.0641
- ATAGAGAG — lower, -0.263
- ACTTTTCC — higher, 0.112
- GGGGACCA — higher, 0.194
- AGTGTTCC — higher, -0.0253
- CCATGCAC — lower, -0.219
- CACCGAGC — higher, -0.00966
- GGTATACC — higher, -0.0901
- AGTTAGCG — higher, 0.0629
- CCCGCGAC — higher, -0.167
- ACTAGCTG — higher, 0.123
- AACCCAAA — higher, 0.149
- CAGTGACA — higher, -0.0594
- ATATAAAT — higher, 0.202
- CAAGCCCC — higher, -0.18
- GAGCGGCA — higher, -0.0784
- GGAACGCA — higher, 0.194
- ATAACGAG — higher, -0.149
- GGACTCAA — higher, 0.0186
- GTAACAGA — higher, 0.00518
- CGTTACAA — higher, -0.0913
- CACTTAGA — higher, 0.0664
- CGCCCTAG — higher, 0.143
- CACGTGGA — higher, 0.044
- AACTGTCC — higher, -0.122
- CTCACTTA — higher, -0.173
- ATGACGCG — higher, -0.0878
- ACGAAAGA — higher, -0.0771
- ATTTATCA — higher, 0.0721
- AGGCCCGA — higher, -0.144
- CTCGTAAA — higher, 0.059
- CATGTTTC — higher, 0.0504
- TGATTGAA — higher, 0.172
- ATCCGTGA — higher, -0.0751
- ATCTAAGG — higher, -0.16
- ACCTAACG — higher, 0.0168
- GACCTCGA — higher, -0.0276
- ACTAGATC — higher, -0.0833
- ATGCGTGG — higher, -0.0381
- CCCGGCAG — higher, -0.0696
- CAAGGATC — higher, 0.0598
- AGACCGTA — higher, 0.00692
- TCGCTTAA — higher, -0.0599
- AAAGTGTA — higher, 0.113
- TTGAACAA — higher, -0.112
- GATCGTAA — higher, -0.0978
- CCGAGATC — higher, -0.0078
- CAGAACCA — higher, 0.0465
- AAAAGATG — higher, 0.143
- ATTACAGC — higher, -0.134
- ACGCATTG — higher, -0.0938
- ATTAGAAT — higher, 0.203
